± gives the standard deviation. In all, about 6,600 sequences were measured (“pre-steady-state target cleavage rate”: median about 0.07, highest 2% from about 0.72 on). The entries are a selection whose mix differs from that of the whole data set. Bounds are passed on as bounds.

Consider 72 sequences from the supplement of paper PMC10338343.

For this experiment, the system named is MIWI (PIWIL1) piRISC loaded with Kctd7 piRNA (30 nt). Nature of the experiment: pre-steady-state target cleavage rate (min^-1); MIWI and MILI are mouse PIWI proteins and EfPiwi is from a freshwater sponge; tags in brackets are library labels; higher = faster piRNA-guided slicing of the target. Conditions: guide: Kctd7 piRNA 5'p-UGUUAAUCUCUCAGAGAAGGUGACAGUGAU; auxiliary factor: 500 nM mouse GTSF1. How it is done:
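Cleave-'n-Seq: a library of target RNAs (target site embedded in constant flanks, ACAGCATTCCGCGTTAGTGATATCCG... 5' flank; DNA-blocked outside the site) at 0.1 nM was incubated with 1 nM active mouse MILI or MIWI piRISC (synthetic 5'-monophosphorylated piRNA guide) with or without 500 nM mouse GTSF1 at 33 °C for 1 min to 16 h. Uncleaved targets were sequenced and normalised to non-target controls, and the pooled three trials were fitted to a burst-and-steady-state model to give the pre-steady-state cleavage rate (min^-1; k3 is constrained to at most 1e-4). Sequence is the target site only; target names encode pairing extent (gX:gY) and contiguous / 1-mismatch / 2-mismatch / bulge geometry. Fits with R² ≤ 0 are excluded.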
Regarding AUCACUGUCACAUUCUCUGAGAGAUUAACA, the “pre-steady-state target cleavage rate” value was 0.799 ± 0.035.

For UAGUGACAGUCCUUAUCUGAGAGAUUAACA, the “pre-steady-state target cleavage rate” value came out at 0.0135 ± 0.0037.

On to UAGUGUGUCACCUUCUCUGAGACUUUAACA, for which the “pre-steady-state target cleavage rate” value was 0.0528 ± 0.01.

For AUCACUGUCACCUUCACUCAGAGAUUAACA, the “pre-steady-state target cleavage rate” value was found to be 0.0516 ± 0.009.

In the case of UAGUCUGUCACCUUCUCUGAGGAGAUUAACA, the “pre-steady-state target cleavage rate” value came to 0.00857 ± 0.0043.

As for UAGUGAGUCAGCCUUCUCUGAGAGAUUAACA, the “pre-steady-state target cleavage rate” value worked out at 0.176 ± 0.02.

As to UAGACUGUCACCUUCUCUGAGAGUUUAUCA, the “pre-steady-state target cleavage rate” value was determined as 0.0519 ± 0.016.

For UAGUCUGUCACGUUCUCAGAGAGAUUAACA, the “pre-steady-state target cleavage rate” value came to 0.165 ± 0.013.

On to AUCACACUCACCUUCUCUGAGAGAUAUUGA, for which the “pre-steady-state target cleavage rate” value amounted to 0.047 ± 0.016.

Consider UAGUGAGACACCUUCUCUGAGAGAUUUUGA, for which the “pre-steady-state target cleavage rate” value amounted to 0.0111 ± 0.0043.

In the case of AUCACUGUCACCUUCUUGAGAGAUUAACA, the “pre-steady-state target cleavage rate” value was 0.174 ± 0.051.

As to UAGACUGACACCUUCUCUGACAGAUUAACA, the “pre-steady-state target cleavage rate” value was found to be 0.275 ± 0.026.

For the sequence UAGUCUGUCACCUUCUCAGAGUGAUUAACA, the “pre-steady-state target cleavage rate” value was 0.0145 ± 0.0045.

On to UAGUGACAGUCCUUCUCUGACAGAUUUACA, for which the “pre-steady-state target cleavage rate” value was less than 0.0001.

Take AUCACUGUCACCUUCUGUGAGAGAUUAUGA: the “pre-steady-state target cleavage rate” value was 0.0197 ± 0.0096.

As for UAGACUGUCACCUUCACUGAGAGAUUAAGA, the “pre-steady-state target cleavage rate” value turned out to be 0.307 ± 0.049.

Turning to UAGUCUGUCACCUUCUCUGAGUGAAUAACA, the “pre-steady-state target cleavage rate” value is 0.0121 ± 0.0043.

For the sequence UAGUGACUCACCUUCUCUGAGAGAUAAAGA, the “pre-steady-state target cleavage rate” value was 0.0384 ± 0.0094.

On to UAGUGAGUCACGUUCUCUGAGAGUUUAACA, for which the “pre-steady-state target cleavage rate” value is 0.164 ± 0.024.

Turning to AUCACUGUCACCUUCUCUGACUGAUUAACA, the “pre-steady-state target cleavage rate” value was 0.0265 ± 0.0055.

On to AUCACUGUCACCUUCUCUGUGAGAUAUUGA, for which the “pre-steady-state target cleavage rate” value turned out to be 0.00942 ± 0.0045.

Turning to UAGUGACAGUCCUUCUCUGAGAGGAUUAACA, the “pre-steady-state target cleavage rate” value is 0.00923 ± 0.0021.

On to UUCACUGUCUCCUUCUCUGAGAGAUAAACA, for which the “pre-steady-state target cleavage rate” value came out at 0.244 ± 0.036.

For the sequence UAGUGUGUCACCAACUCUGAGAGAUUAACA, the “pre-steady-state target cleavage rate” value was 0.306 ± 0.035.

UAGUGACACACCUUCACUGAGAGAAUAACA: the “pre-steady-state target cleavage rate” value was 0.0335 ± 0.0091.

UAGUGACUCACCUUCUCUGAGAGAUCUAACA: the “pre-steady-state target cleavage rate” value was 0.319 ± 0.073.

Turning to UAGUGACUGAGCUUCUCUGAGAGAUUAACA, the “pre-steady-state target cleavage rate” value is 0.0278 ± 0.005.

Take UACACUGUCACCUUCUCUGUCAGAUUUUGA: the “pre-steady-state target cleavage rate” value came out at 0.012 ± 0.0077.

With UAGUCUGUCACCUUCUCUGACAGUUUAACA, the “pre-steady-state target cleavage rate” value was 0.0307 ± 0.005.

As to UUCACUGUCACCUUCUCUGAGAAUUAACA, the “pre-steady-state target cleavage rate” value worked out at 0.296 ± 0.084.

On to UAGUGACUCACCUUCUAUGAGAGAUUAACA, for which the “pre-steady-state target cleavage rate” value turned out to be 0.107 ± 0.013.

On to UAGUCUGUCACCUUCUCUGACUGAUUAACA, for which the “pre-steady-state target cleavage rate” value came out at 0.024 ± 0.0061.

As for AUCACUGUCACCAAGUCUGAGAGAUUAAGA, the “pre-steady-state target cleavage rate” value amounted to 0.0825 ± 0.019.

As to UUCACUGUCACUCUUCUCUGAGAGAUUAACA, the “pre-steady-state target cleavage rate” value stood at 0.506 ± 0.026.

Turning to UAGACUGUCACCUUCUCUGAGAGAUAUUCA, the “pre-steady-state target cleavage rate” value stood at 0.034 ± 0.0074.

Regarding UAGUCUCUCACCUUCUCUGAGAGAUUUACA, the “pre-steady-state target cleavage rate” value worked out at 0.0629 ± 0.011.

On to UAGUGACACACCUUCUCUGAGAGAAUUACA, for which the “pre-steady-state target cleavage rate” value turned out to be 0.0648 ± 0.021.

As for UUCACUGUAACCUUCUCUGAGAGAUUAACA, the “pre-steady-state target cleavage rate” value was 0.606 ± 0.028.

Regarding AUCACUGUGUCCUUCUCUGAGAGAUUUUGA, the “pre-steady-state target cleavage rate” value was 0.0439 ± 0.014.

On to AUCACUGUCACCUACUCUGAGAGAUUAUGA, for which the “pre-steady-state target cleavage rate” value is 0.0815 ± 0.019.

For the sequence UUCACUGUCACCUUCACUGAGAGUUUAACA, the “pre-steady-state target cleavage rate” value was 0.426 ± 0.072.

For UAGUGAGUCACGUUCUCUGAGAGAUUAACA, the “pre-steady-state target cleavage rate” value came out at 0.602 ± 0.029.

UUCACUGUCACCUUCUCUGUGUGAUUAACA: the “pre-steady-state target cleavage rate” value amounted to 0.0241 ± 0.01.

As to UAGUGACAGUCCCUCUCUGAGAGAUUAACA, the “pre-steady-state target cleavage rate” value is 0.0306 ± 0.0097.

UACACUGUGACGUUCUCUGAGAGAUUAACA: the “pre-steady-state target cleavage rate” value came out at 0.638 ± 0.035.

As for UAGUCUGUCACCUUACUCUGAGAGAUUAACA, the “pre-steady-state target cleavage rate” value amounted to 0.524 ± 0.032.

Turning to “UAGUGAGUCACCUUCUCUGAGAGAAAUUGA [g7:g24:cont:t1A]”, the “pre-steady-state target cleavage rate” value was 0.0251 ± 0.0092.

Turning to UACACUGUCACCUUCUCUGUCAGAUUAACA, the “pre-steady-state target cleavage rate” value amounted to 0.0245 ± 0.008.

With UAGUCUGUCACCUUCUCUGAGUAGAUUAACA, the “pre-steady-state target cleavage rate” value is 0.00482 ± 0.0032.

With UACACUGUGACCUUCUCUCAGAGAUUAACA, the “pre-steady-state target cleavage rate” value was 0.0687 ± 0.012.

With UAGUGACAGUGGAAGAGACAGUGAUUUACA, the “pre-steady-state target cleavage rate” value was less than 0.0001.

On to UAGACUGACACCUUCUCUGAGAGAAUAACA, for which the “pre-steady-state target cleavage rate” value came out at 0.306 ± 0.064.

Regarding UAGACUGUCACCUUCACUGAGUGAUUAACA, the “pre-steady-state target cleavage rate” value came to 0.0205 ± 0.0036.

Turning to UUCACUCUCACCUUCUCUGAGAGAUUAAGA, the “pre-steady-state target cleavage rate” value worked out at 0.0591 ± 0.019.

On to UAGUGUGUCACCUUUCUGAGAGAUUAACA, for which the “pre-steady-state target cleavage rate” value came to 0.326 ± 0.028.

For the sequence AUCACUGUGACCUUCUCUGAGAGUUUAACA, the “pre-steady-state target cleavage rate” value came out at 0.46 ± 0.072.

On to UUCAGAGUCACCUUCUCUGAGAGAUUAACA, for which the “pre-steady-state target cleavage rate” value came out at 0.594 ± 0.045.

In the case of UUCACUGUCACCUUCUCUGAGAGAUUAAUA, the “pre-steady-state target cleavage rate” value was found to be 0.308 ± 0.036.

Consider UAGUGACACACGUUCUCUCAGAGAUUAACA, for which the “pre-steady-state target cleavage rate” value came out at 0.0098 ± 0.0032.

Consider UAGACUGUCACCUUCUCAGAGAGAUAUUGA, for which the “pre-steady-state target cleavage rate” value came to 0.0061 ± 0.0033.

For UAGUGACAGAGCUUCUCUGAGAGAUUAACA, the “pre-steady-state target cleavage rate” value stood at 0.0181 ± 0.0033.

On to UAGUCUGUGACCUUCUCUGAGAGAUUAACA, for which the “pre-steady-state target cleavage rate” value came to 0.599 ± 0.031.

On to UAGUGACUCACCAUCUCUGACAGAUUAACA, for which the “pre-steady-state target cleavage rate” value is 0.032 ± 0.0056.

For UUCACUGUCACCUUCUCUGAGAGAUUACCA, the “pre-steady-state target cleavage rate” value turned out to be 0.332 ± 0.054.

Regarding UACACUGUCACCUUCUUCUGAGAGAUUAACA, the “pre-steady-state target cleavage rate” value was found to be 0.227 ± 0.07.

As for UUCAGUGUCACCUUCUCUGAGAGAUUUACA, the “pre-steady-state target cleavage rate” value amounted to 0.223 ± 0.036.

For UAGUGACACACCUUCUCUGAGAGAUAUAGA, the “pre-steady-state target cleavage rate” value came out at 0.00835 ± 0.0046.

For UAGUCUGUCACCUUCGCUGAGAGAUUAACA, the “pre-steady-state target cleavage rate” value turned out to be 0.416 ± 0.035.

As to UAGUGACACACCUUCACUGACAGAUUAACA, the “pre-steady-state target cleavage rate” value amounted to 0.107 ± 0.019.

For the sequence UUCACUGUCACCUUCUCAGAGAGAUUUACA, the “pre-steady-state target cleavage rate” value stood at 0.222 ± 0.036.

As for UAGUGUGUGUCCUUCUCUGAGAGAUUAUGA, the “pre-steady-state target cleavage rate” value turned out to be 0.00712 ± 0.0033.

On to UAGUGAGUCACCUUCUCUGAGACAUUAUCA, for which the “pre-steady-state target cleavage rate” value was 0.0168 ± 0.0064.
